The campaign covered roughly 48,000 compounds. About 550 (1.1%) were called active. Not shown: some 4% with an inconclusive outcome. Rule as the data show it: active = potency below about 15 µM; inconclusive = mostly about 16 µM to 33 µM; inactive = weaker than that. Some of the results follow. Bounds are passed on as bounds.
Potency is read from the fitted curve at half-maximal effect.

The target of this assay is Lysosomal acid glucosylceramidase (Homo sapiens) (UniProt P04062). Briefly: Glucocerebrosidase.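 Also: the screen sought inhibitors.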 To be noted: purified enzyme, resorufin glucoside fluorescence (screen aimed at inhibitors), 20 min. The method, boiled down: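 Compounds titrated against 0.2 nM normal enzyme, 30 uM resorufin beta-D-glucopyranoside substrate, citrate/phosphate buffer with taurocholate and tween-20, pH 5.9. Reaction ran 20 min at room temperature; fluorescence (Ex 548/Em 600) gave AC50.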
Sequence of UniProt P04062 (P04062 whole entry, looked up): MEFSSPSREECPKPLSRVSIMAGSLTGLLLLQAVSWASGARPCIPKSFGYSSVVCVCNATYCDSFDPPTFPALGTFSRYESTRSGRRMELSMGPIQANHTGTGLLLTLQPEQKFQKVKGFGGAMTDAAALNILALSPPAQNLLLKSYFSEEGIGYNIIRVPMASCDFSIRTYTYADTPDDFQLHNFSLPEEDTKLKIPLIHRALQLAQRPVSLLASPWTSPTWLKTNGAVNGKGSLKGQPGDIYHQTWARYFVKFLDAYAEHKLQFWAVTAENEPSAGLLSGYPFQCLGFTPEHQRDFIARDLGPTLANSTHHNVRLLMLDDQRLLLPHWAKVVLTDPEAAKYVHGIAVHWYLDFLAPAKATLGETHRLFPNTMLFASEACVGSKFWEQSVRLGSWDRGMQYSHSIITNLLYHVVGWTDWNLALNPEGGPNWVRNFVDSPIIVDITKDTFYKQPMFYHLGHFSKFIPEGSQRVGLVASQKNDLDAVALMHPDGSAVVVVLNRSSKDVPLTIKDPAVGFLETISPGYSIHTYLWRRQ
For `O=C(C1CCCO1)N(c1cccc(Cl)c1)C1C=CS(=O)(=O)C1` (stereo not drawn), the Potency was inactive: > 76.9 µM.
Under `O=C(CSc1nnnn1C1CCCC1)NCc1ccc2c(c1)OCO2` stands inactive: > 76.9 µM.
Under `O=C(COC(=O)c1ccccc1S(=O)(=O)N1CCCCC1)NCC(F)(F)F` stands inactive: > 76.9 µM.
Under `CNC(=O)C1CCCN1S(=O)(=O)c1ccc(OC)cc1` (stereo not drawn) stands inactive: > 76.9 µM.
With `COc1ccccc1-c1ccc(=O)n(CC(=O)Nc2ccc(C(=O)N3CCCC3)cc2)n1`, the Potency was inactive: > 76.9 µM.
The same measure for `O=C(NC1CCCCC1)c1cc2nc(-c3ccco3)cc(C(F)(F)F)n2n1`: inactive: > 76.9 µM; for `Cn1c(CN2CCOCC2)nnc1SCC(=O)NC1CCCCC1`: inactive: > 76.9 µM.
Under `CCC1CCCCN1CCCNC(=O)C1CCN(S(=O)(=O)N2CCCCC2)CC1` (stereo not drawn) stands inactive: > 76.9 µM; under `Cc1ccccc1-c1nc(CN2CCC(C(=O)NCc3cccnc3)CC2)c(C)o1`, inactive: > 76.9 µM; under `CN(C)c1ccc(N=Cc2nc(-c3ccccc3)oc2O)cc1`, inactive: > 76.9 µM.
Under `Cc1ccc(CNC(=O)CN2CCN(Cc3ccc(Cl)cc3)C2=O)cc1` stands inactive: > 76.9 µM; under `COc1ccc(-c2cc(OC)c3c(C)oc(C)c3c(=O)c2)cc1OC`, inactive: > 76.9 µM; under `O=C(Cn1cnc2c(cnn2-c2ccc(F)cc2)c1=O)OCc1ccccc1`, inactive: > 76.9 µM.
On to `COCCCNC(=O)C1CC(=O)N(Cc2ccc(OC)cc2)C1` (stereo not drawn), for which the Potency is inactive: > 76.9 µM.
The same measure for `COc1ccc(NC(=O)CSc2nccn2-c2ccccc2)c(OC)c1`: inactive: > 76.9 µM; for `O=C(Cc1ccc(-n2cccc2)cc1)N1CCN(c2ccccc2F)CC1`: inactive: > 76.9 µM; for `COc1ccc(C2C(C(=O)N3CCOCC3)=C(C)NC3=C2C(=O)CC(C)(C)C3)c(OC)c1` (stereo not drawn): inactive: > 76.9 µM.
Take `O=C(COc1ccc2oc(-c3ccccc3)cc(=O)c2c1)NCc1ccco1`: the Potency is inactive: > 76.9 µM.
The same measure for `CSc1ccccc1NC(=O)c1cc(-c2cccs2)on1`: inactive: > 76.9 µM.
`CC1CN(C(=O)COC(=O)c2cccs2)CC(C)O1` (stereo not drawn): the Potency was inactive: > 76.9 µM.
Under `COC(=O)c1c(C)oc(C)c(C(=O)OC)c1=O` stands inactive: > 76.9 µM.
Under `N#Cc1nc(-c2ccc(OCc3ccccc3)cc2)oc1N1CCOCC1` stands inactive: > 76.9 µM.
As to `On1cnnc1-c1ccccc1`, the Potency was inactive: > 76.9 µM.
In the case of `CSc1nnc(-c2ccccc2)c(=O)[nH]1`, the Potency was inactive: > 76.9 µM.
Under `c1ccc(Cn2nnnc2-c2ccco2)cc1` stands inactive: > 76.9 µM; under `Cn1c(=O)c2c(nc(CN3CCc4ccccc4C3)n2CCc2ccccc2)n(C)c1=O`, inactive: > 76.9 µM; under `COc1cccc(NC(=O)Cn2nnc(C(=O)Nc3ccccc3)c2N)c1`, inactive: > 76.9 µM.
Turning to `COc1ccc2c(c1OC)C(=O)N1C2SC[C@H]1C(=O)NC1CC(C)(C)NC(C)(C)C1` (stereo partly drawn), the Potency was inactive: > 76.9 µM.
Under `O=C(Cc1ccccc1)Nc1nnc(-c2ccco2)s1` stands inactive: > 76.9 µM; under `NC(=O)COc1ccc(NC(=O)OCc2ccccc2)cc1`, inactive: > 76.9 µM; under `CCOC(=O)C1CCCN(C(=O)c2cc3nc(-c4cccc(OC)c4)cc(C(F)(F)F)n3n2)C1` (stereo not drawn), active: 7.22 µM.
The same measure for `C=CCNc1nc(NCc2ccco2)nc(OCC)n1`: inactive: > 76.9 µM; for `CC(C)c1ccc(S(=O)(=O)c2n[nH]n3c2nc(=O)c2ccccc23)cc1`: inactive: > 76.9 µM.
With `COc1ccc(NC(=O)CCN2CCN(S(=O)(=O)c3cc(Cl)ccc3OC)CC2)cc1`, the Potency was inactive: > 76.9 µM.
Regarding `COc1ccc(C2(C)NC(=O)N(Cc3cc(Cl)cc4c3OCOC4)C2=O)cc1OC` (stereo not drawn), the Potency was inactive: > 76.9 µM.
Under `O=C(CSc1nnc(-c2ccco2)n1CC1CCCO1)N1CCCCC1` (stereo not drawn) stands inactive: > 76.9 µM.
The same measure for `COCc1nc(-c2cc(OC)c(OC)c(OC)c2)no1`: inactive: > 76.9 µM.
Under `CCn1c2ccccc2c2cc(NC(=O)CSc3nnc(C4CC4)n3Cc3ccco3)ccc21` stands inactive: > 76.9 µM; under `Cc1ccccc1NC1C=CS(=O)(=O)C1` (stereo not drawn), inactive: > 76.9 µM; under `COc1ccc(CN(C(=O)CN2C(=O)COc3ccccc32)C2CCCC2)c(OC)c1`, inactive: > 76.9 µM.
Regarding `COc1cc(OC)cc(C(=O)NCCSCc2ccco2)c1`, the Potency is inactive: > 76.9 µM.
Under `Cc1ccccc1NC(=O)CSC(N)=O` stands inactive: > 76.9 µM; under `CCCOc1ccc(C(=O)CCN2CCCCC2)cc1`, “inactive”.
The same measure for `CC(C)OCCCn1c(=S)[nH]c2ncccc2c1=O`: inactive: > 76.9 µM; for `Cc1ccc(-n2c(=O)c3sccc3n(CC(=O)NCc3ccco3)c2=O)cc1`: inactive: > 76.9 µM.
On to `CCC1CCCCN1CCCNC(=O)COc1cc(=O)n(C)c2ccccc12` (stereo not drawn), for which the Potency was inactive: > 76.9 µM.
On to `Cc1cccc(NC(=O)COc2nsnc2N2CCOCC2)c1`, for which the Potency is inactive: > 76.9 µM.
The same measure for `CCOC(=O)NC(=O)CSc1nnnn1-c1ccc(Cl)cc1`: inactive: > 76.9 µM; for `Cc1cc2cc(CNC(=O)c3ccc4c(c3)OCO4)ccc2n1C`: inactive: > 76.9 µM.
In the case of `C=CCn1c(SCC#N)nc2ccccc2c1=O`, the Potency was inactive: > 76.9 µM.
Under `COc1ccc(Cn2c(SCC(=O)NCc3ccco3)nc3ccsc3c2=O)cc1` stands inactive: > 76.9 µM; under `COc1ccc(CC(=O)Nc2nc3ccccc3s2)cc1S(=O)(=O)N1CCOCC1`, inactive: > 76.9 µM.
Under `CCOC(=O)c1nnn(-c2nonc2N)c1CNC(C)C` stands inactive: > 76.9 µM; under `c1ccc(OCCOc2ncnc3ccccc23)cc1`, inactive: > 76.9 µM.
Under `Cc1ccc(Cn2ccc(NC(=O)c3cc(-c4ccc(Cl)cc4)on3)n2)cc1` stands inactive: > 76.9 µM; under `Cc1ccc(Cn2c(SCC(C)C)nc3c2c(=O)n(C)c(=O)n3C)cc1`, inactive: > 76.9 µM.
Regarding `CC(C)OCCCNC(=O)C1CC(=O)N(C2CCCCCCC2)C1` (stereo not drawn), the Potency was inactive: > 76.9 µM.
The same measure for `COc1ccc(CCNC(=O)c2sc(=S)n(C)c2N)cc1`: inactive: > 76.9 µM; for `O=C(CSc1nnnn1C1CCCCC1)Nc1nc2c(s1)CCCC2`: inactive: > 76.9 µM; for `CS(=O)(=O)Cc1nc2ccccc2oc1=O`: inactive: > 76.9 µM.
With `CCOC(=O)Cn1cnc2c(nnn2Cc2ccc(Cl)cc2)c1=O`, the Potency was inactive: > 76.9 µM.
The same measure for `CCOC(=O)CCn1c(CC(=O)OCC)nc2ccccc21`: inactive: > 76.9 µM; for `CSc1nnc2c(n1)OC(C)=Nc1ccccc1-2`: inactive: > 76.9 µM.
Under `COc1ccc(Cc2nn3c(-c4ccccc4OC)nnc3s2)cc1` stands inactive: > 76.9 µM; under `Cc1ccc2nc(-c3ccc4c(c3)OCCO4)cc(C(=O)O)c2c1`, inactive: > 76.9 µM.
The same measure for `COc1ccc(Cn2nnnc2CN2CCc3ccccc32)cc1`: inactive: > 76.9 µM; for `Cc1cc(=O)n(C)c(=O)n1CCCNc1ccccc1`: inactive: > 76.9 µM.
`Cc1ccc(S(=O)(=O)NCCCN(C)C)cc1`: the Potency is inactive: > 76.9 µM.
Consider `CCOC(=O)C1CCCN(C(=O)CN2CCN(Cc3ccc(Cl)cc3)C2=O)C1` (stereo not drawn), for which the Potency was inactive: > 76.9 µM.
As for `CCCCn1c(N2CCC(Cc3ccccc3)CC2)nc2c1c(=O)[nH]c(=O)n2C`, the Potency is inactive: > 76.9 µM.
The same measure for `O=C(CN1C(=O)c2cccc3cccc1c23)NCc1cccnc1`: inactive: > 76.9 µM; for `Cc1ccc(N=C2NC(=O)CS2)c(C)c1`: inactive: > 76.9 µM.
The same measure for `CN(C(=O)COC(=O)COc1ccc(Cl)cc1)C1CCCCC1`: inactive: > 76.9 µM; for `O=C(COc1ccc(-c2nnco2)cc1)NC1CCCc2ccccc21` (stereo not drawn): inactive: > 76.9 µM.
Under `CC(C)n1c2ccccc2c2nc3ccccc3nc21` stands inactive: > 76.9 µM.
On to `Cn1c(SCC(N)=O)nnc1C1CCN(S(=O)(=O)c2ccccc2C(F)(F)F)CC1`, for which the Potency is inactive: > 76.9 µM.
The same measure for `COc1ccc(CCNC(=O)c2nnn(CC(=O)Nc3ccccc3C)c2N)cc1OC`: inactive: > 76.9 µM; for `CCOC(=O)c1ccc(NC(=O)CN2CCc3ccccc3C2)cc1`: inactive: > 76.9 µM; for `CCOc1ccc(-n2c(SCC(N)=O)nc3c(c2=O)SCC3)cc1`: inactive: > 76.9 µM.
Under `COc1ccc(-c2noc(CCC(=O)Nc3cc(OC)ccc3OC)n2)cc1` stands inactive: > 76.9 µM; under `NCCCCCNC(=O)/C=N\O`, inactive: > 76.9 µM; under `Cc1ccc2c(c1)-c1cc(C)nn1C(c1ccc3c(c1)OCO3)N2` (stereo not drawn), inactive: > 76.9 µM.
On to `O=C(Nc1cc(=O)[nH]c2ncnn12)c1ccccc1Cl`, for which the Potency is inactive: > 76.9 µM.
As to `Cc1ccn2cc(C(=O)Nc3ccccc3N3CCOCC3)nc2c1`, the Potency is inactive: > 76.9 µM.
For the compound `CS(=O)(=O)N(CCc1ccccc1)CC(=O)N1CCN(Cc2ccc3c(c2)OCO3)CC1`, the Potency is inactive: > 76.9 µM.
For `COCCNC(=O)C(c1ccc(C)o1)N(Cc1ccc(F)cc1)C(=O)Cn1nnc2ccccc21` (stereo not drawn), the Potency is inactive: > 76.9 µM.
Under `N#C/C(=C(/O)CN1CCOCC1)c1nc2ccccc2s1` stands inactive: > 76.9 µM; under `Cc1ccc2c(CNCc3ccco3)cc(=O)oc2c1`, inactive: > 76.9 µM.
The same measure for `O=C(CCCc1cccs1)N1CCN(S(=O)(=O)c2ccccc2Br)CC1`: inactive: > 76.9 µM; for `c1ccc2c(c1)c1c3n2CCNC3CCC1` (stereo not drawn): inactive: > 76.9 µM; for `Cc1ccc2oc(=O)n(CCCOc3ccccc3)c2c1`: inactive: > 76.9 µM.
Under `Cc1cc(C)c2c(n1)nn1c(N3CCN(c4ccccn4)CC3)cc(C)nc21` stands inactive: > 76.9 µM.
For the compound `Cc1cccn2c(=O)c3cc(C(=O)N4CCCc5ccccc54)n(C)c3nc12`, the Potency was inactive: > 76.9 µM.

Values taken from PubChem BioAssay AID360 (National Center for Advancing Translational Sciences (NCATS), 2006).
